{"source": "paper PMC12040169", "about": "(PLOS Biology, 2025)", "note": "Some of the results follow.", "data": [{"tested_on": "T1, C. trachomatis L2/434/Bu expressing GFP (CTL2-GFP)", "T1 construct": "L2/434/Bu GFP intracellular growth in HeLa cells", "design": "species or system HeLa; C. trachomatis total inclusion area by high-content imaging, normalised to DMSO", "details": "total inclusion area; 28.5 h, 10 µM; inhibitor", "outline": "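High-content imaging followed the bulk GFP/resorufin measurement: fixed, Hoechst-stained cells were scored for GFP inclusions and host nuclei per well. Total inclusion area and count served as growth proxies, nuclei number as the viability proxy. MIC calculation matched the bulk assay.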", "values": [{"smiles": "Clc1ccc(COc2cccc(CNCCN3CCOCC3)c2)cc1", "note": "[CBK278227C]", "% of control remaining": 77.5636}, {"smiles": "C=CCn1c(Cc2csc(NC(=O)c3cnc(SC)n3-c3ccccc3)n2)n[nH]c1=S", "note": "[CBK297786]", "% of control remaining": 79.3696}, {"smiles": "Cn1cccc1C(=O)N[C@H]1CCN2C(=O)N(c3ccc(OC(F)(F)F)cc3)C(=O)[C@@H]2C1", "note": "[CBK289548]", "% of control remaining": 113.191}, {"smiles": "CN(Cc1nc2c(s1)CCCC2)C(=O)c1ccc2[nH]cnc2c1", "note": "[CBK304138]", "% of control remaining": 74.2601}, {"smiles": "Cc1ccc2[nH]c(Cc3ccc(NC(=O)c4cccc5c(=O)cc(C)[nH]c45)cc3)nc2c1", "note": "[CBK285814]", "% of control remaining": 104.259}, {"smiles": "Cc1cccnc1NC(=O)c1cccc(C(=O)Nc2ncccc2C)c1", "note": "[CBK262184]", "% of control remaining": 97.1791}, {"smiles": "COc1ccc(-c2c[n+]3ccccc3c(=O)[nH]2)cc1", "note": "[CBK011078B]", "% of control remaining": 123.224}, {"smiles": "Cc1cc(CSc2ccccc2)ccc1NC(=O)/C=C/c1cccc([N+](=O)[O-])c1", "note": "[CBK264687]", "% of control remaining": 94.1005}, {"smiles": "CCc1ccc(C(=O)NC(Cc2c[nH]c3ccccc23)C(=O)O)cc1", "note": "(stereo not drawn) [CBK269556]", "% of control remaining": 86.5207}, {"smiles": "COc1ccccc1-c1ncc(OCC(F)(F)F)nc1NC(=O)C1CC1", "note": "[CBK145275]", "% of control remaining": 106.812}, {"smiles": "C=CCOC(=O)N1CCC(C(=O)N(C)C(c2cccc(OC)c2)c2ccccn2)CC1", "note": "(stereo not drawn) [CBK060244]", "% of control remaining": 83.9906}, {"smiles": "CN1CCN(c2ccc(-c3cccc(N(C)C)c3)cn2)CC1", "note": "[CBK037621]", "% of control remaining": 110.012}, {"smiles": "O=C(CCn1c(C(F)(F)F)cc2cccnc21)NCc1cccnc1", "note": "[CBK284865]", "% of control remaining": 82.0229}, {"smiles": "CC(=O)NCCC(CN1CCOCC1)([N+](=O)[O-])[N+](=O)[O-]", "note": "[CBK261338]", "% of control remaining": 99.3333}, {"smiles": "O=C(c1ccccc1)N1C[C@@H](c2ccsc2)[C@@H]2CN(Cc3ccc(Cl)cc3)CC[C@@H]21", "note": "[CBK285615]", "% of control remaining": 50.8439}, {"smiles": "O=C(CN(c1cc(Cl)ccc1Cl)S(=O)(=O)c1ccccc1)Nc1cccnc1", "note": "[CBK268708]", "% of control remaining": 75.3349}, {"smiles": "CC[C@H]1CCCCN1C(=O)c1sc2nc(C(C)=O)ccc2c1Cl", "note": "[CBK091046]", "% of control remaining": 70.7906}, {"smiles": "Nc1ncc(-c2cccc(O)c2)nc1-c1ccc(CCC(=O)O)cc1", "note": "[CBK064135]", "% of control remaining": 82.0808}, {"smiles": "O=C(NCc1ccco1)c1nccnc1-c1ccc(COc2ccc3c(c2)CCCC3)cc1", "note": "[CBK050851]", "% of control remaining": 116.365}, {"smiles": "O=C(c1ccsc1)N1CCC2(CC1)CN(Cc1ccccc1)CC(c1ccccc1)O2", "note": "(stereo not drawn) [CBK286438]", "% of control remaining": 60.2427}, {"smiles": "CC(=O)Nc1ccc(S(=O)(=O)Nc2ccc(S(=O)(=O)Nc3cc(C)ccc3C)cc2)cc1", "note": "[CBK264745]", "% of control remaining": 117.699}]}]}
